In the supplement of paper PMC8728848:
This is one part of the list.

What was measured:
Assay in all cases: glycan array binding signal (z-score within array); higher = stronger binding
Settings in all cases: glycan notation: IUPAC condensed, linker removed
[1] = biological target: GlcNAc(b1-3)Gal(b1-4)GlcNAc
Outline: (§1)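 Glycan array data were curated from 3228 arrays in the Consortium for Functional Glycomics database and kept only where the protein sequence was available. Glycan names were converted to IUPAC-condensed notation, and columns mapping to the same glycan were averaged. The binding signal is a within-array Z-score, averaged across arrays of the same protein sequence at different concentrations or buffers and across linkers. Negative Z-scores can be read as non-binding.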

[2] = biological target: GlcNAc(b1-3)Gal(b1-4)GlcNAc(b1-3)Gal(b1-4)GlcNAc
Outline: as §1

[3] = biological target: GlcNAc(b1-3)GalNAc
Outline: as §1

[4] = biological target: GlcNAc(b1-3)[GlcNAc(b1-6)]Gal(b1-4)GlcNAc
Outline: as §1

[5] = biological target: GlcNAc(b1-3)[GlcNAc(b1-6)]GalNAc
Outline: as §1

[6] = biological target: GlcNAc(b1-3)[GlcNAc(b1-6)]GlcNAc(b1-4)GlcNAc
Outline: as §1

[7] = biological target: GlcNAc(b1-4)Gal(b1-4)GlcNAc
Outline: as §1

[8] = biological target: GlcNAc(b1-4)GlcNAc(b1-4)GlcNAc
Outline: as §1

[9] = biological target: GlcNAc(b1-4)GlcNAc(b1-4)GlcNAc(b1-4)GlcNAc(b1-4)GlcNAc
Outline: as §1

[10] = biological target: GlcNAc(b1-4)GlcNAc(b1-4)GlcNAc(b1-4)GlcNAc(b1-4)GlcNAc(b1-4)GlcNAc
Outline: as §1

[11] = biological target: GlcNAc(b1-4)[GlcNAc(b1-6)]GalNAc
Outline: as §1

[12] = biological target: GlcNAc(b1-6)Gal(b1-4)GlcNAc
Outline: as §1

[13] = biological target: GlcNAc(b1-6)GalNAc
Outline: as §1

[14] = biological target: Kdn(a2-3)Gal(b1-3)GlcNAc
Outline: as §1

[15] = biological target: Kdn(a2-3)Gal(b1-4)GlcNAc
Outline: as §1

[16] = biological target: Man(a1-2)Man(a1-2)Man(a1-3)Man
Outline: as §1

[17] = biological target: Man(a1-2)Man(a1-2)Man(a1-6)[Man(a1-3)]Man
Outline: as §1

[18] = biological target: Man(a1-2)Man(a1-3)Man
Outline: as §1

[19] = biological target: Man(a1-2)Man(a1-3)[Man(a1-2)Man(a1-6)]Man
Outline: as §1

[20] = biological target: Man(a1-2)Man(a1-3)[Man(a1-2)Man(a1-6)]Man(a1-6)[Man(a1-2)Man(a1-2)Man(a1-3)]Man(b1-4)GlcNAc(b1-4)GlcNAc
Outline: as §1

[21] = biological target: Man(a1-2)Man(a1-3)[Man(a1-6)]Man(a1-6)[Man(a1-2)Man(a1-3)]Man(b1-4)GlcNAc(b1-4)GlcNAc
Outline: as §1

[22] = biological target: Man(a1-2)Man(a1-6)[Man(a1-3)]Man(a1-6)[Man(a1-2)Man(a1-2)Man(a1-3)]Man(b1-4)GlcNAc(b1-4)GlcNAc
Outline: as §1

[23] = biological target: Man(a1-3)[Man(a1-6)]Man
Outline: as §1

[24] = biological target: Man(a1-3)[Man(a1-6)]Man(a1-6)[Man(a1-2)Man(a1-3)]Man(b1-4)GlcNAc(b1-4)GlcNAc
Outline: as §1

[25] = biological target: Man(a1-3)[Man(a1-6)]Man(a1-6)[Man(a1-3)]Man(b1-4)GlcNAc(b1-4)GlcNAc
Outline: as §1

[26] = biological target: Man(a1-3)[Man(a1-6)]Man(b1-4)GlcNAc(b1-4)GlcNAc
Outline: as §1

[27] = biological target: Man(b1-4)GlcNAc
Outline: as §1

[28] = biological target: Neu5Ac(a2-3)Gal
Outline: as §1

[29] = biological target: Neu5Ac(a2-3)Gal(b1-3)GalNAc
Outline: as §1

[30] = biological target: Neu5Ac(a2-3)Gal(b1-3)GalNAc(b1-3)Gal(a1-4)Gal(b1-4)Glc
Outline: as §1

[31] = biological target: Neu5Ac(a2-3)Gal(b1-3)GalNAc(b1-3)Gal(b1-4)GlcNAc
Outline: as §1

[32] = biological target: Neu5Ac(a2-3)Gal(b1-3)GalNAc(b1-4)[Neu5Ac(a2-3)]Gal(b1-4)Glc
Outline: as §1

[33] = biological target: Neu5Ac(a2-3)Gal(b1-3)GalNAc6S
Outline: as §1

[34] = biological target: Neu5Ac(a2-3)Gal(b1-3)GlcNAc
Outline: as §1

[35] = biological target: Neu5Ac(a2-3)Gal(b1-3)GlcNAc6S
Outline: as §1

[36] = biological target: Neu5Ac(a2-3)Gal(b1-3)[Fuc(a1-4)]GlcNAc
Outline: as §1

[37] = biological target: Neu5Ac(a2-3)Gal(b1-3)[Fuc(a1-4)]GlcNAc(b1-3)Gal(b1-4)[Fuc(a1-3)]GlcNAc
Outline: as §1

[38] = biological target: Neu5Ac(a2-3)Gal(b1-3)[Neu5Ac(a2-3)Gal(b1-4)]GlcNAc
Outline: as §1

[39] = biological target: Neu5Ac(a2-3)Gal(b1-3)[Neu5Ac(a2-6)]GalNAc
Outline: as §1

[40] = biological target: Neu5Ac(a2-3)Gal(b1-4)Glc
Outline: as §1

[41] = biological target: Neu5Ac(a2-3)Gal(b1-4)GlcNAc
Outline: as §1

B1: DCIR (Homo sapiens), Q9UMR7 (protein)
chain: MTSEITYAEVRFKNEFKSSGINTASSAASKERTAPHKSNTGFPKLLCASLLIFFLLLAISFFIAFVIFFQKYSQLLEKKTTKELVHTTLECVKKNMPVEETAWSCCPKNWKSFSSNCYFISTESASWQDSEKDCARMEAHLLVINTQEEQDFIFQNLQEESAYFVGLSDPEGQRHWQWVDQTPYNESSTFWHPREPSDPNERCVVLNFRKSPKRWGWNDVNCLGPQRSVCEMMKIHL
glycan array binding signal (z-score) [1]: -0.314
glycan array binding signal (z-score) [2]: -0.419
glycan array binding signal (z-score) [3]: -0.401
glycan array binding signal (z-score) [4]: -0.549
glycan array binding signal (z-score) [5]: -0.252
glycan array binding signal (z-score) [6]: -0.254
glycan array binding signal (z-score) [7]: -0.253
glycan array binding signal (z-score) [8]: -0.211
glycan array binding signal (z-score) [9]: 0.043
glycan array binding signal (z-score) [10]: -0.209
glycan array binding signal (z-score) [11]: -0.063
glycan array binding signal (z-score) [12]: -0.376
glycan array binding signal (z-score) [13]: -0.354
glycan array binding signal (z-score) [14]: -0.081
glycan array binding signal (z-score) [15]: -0.247
glycan array binding signal (z-score) [16]: -0.113
glycan array binding signal (z-score) [17]: -0.108
glycan array binding signal (z-score) [18]: -0.007
glycan array binding signal (z-score) [19]: 0.098
glycan array binding signal (z-score) [20]: -0.585
glycan array binding signal (z-score) [21]: -0.535
glycan array binding signal (z-score) [22]: -0.335
glycan array binding signal (z-score) [23]: -0.333
glycan array binding signal (z-score) [24]: -0.349
glycan array binding signal (z-score) [25]: -0.242
glycan array binding signal (z-score) [26]: -0.14
glycan array binding signal (z-score) [27]: -0.179
glycan array binding signal (z-score) [28]: 0.446
glycan array binding signal (z-score) [29]: 0.431
glycan array binding signal (z-score) [30]: -0.45
glycan array binding signal (z-score) [31]: -0.161
glycan array binding signal (z-score) [32]: -0.298
glycan array binding signal (z-score) [33]: 1.02
glycan array binding signal (z-score) [34]: -0.077
glycan array binding signal (z-score) [35]: 0.3
glycan array binding signal (z-score) [36]: -0.452
glycan array binding signal (z-score) [37]: -0.136
glycan array binding signal (z-score) [38]: -0.382
glycan array binding signal (z-score) [39]: -0.425
glycan array binding signal (z-score) [40]: -0.483
glycan array binding signal (z-score) [41]: -0.202
